Laboratory results taken from publication PMC4336329 (PLoS ONE, 2015).
The campaign covered roughly 310,000 compounds. About 2,200 (0.71%) showed an effect of 50% or more. Effects have a minus sign here. This is one part of the list.

Molecular target: human ether-à-go-go-related gene (hERG) potassium channel (human, UniProt Q12809)
Experiment: primary screen, population patch clamp on CHO cells stably expressing hERG

Sequence of human ether-à-go-go-related gene (hERG) potassium channel (Q12809 whole entry, looked up): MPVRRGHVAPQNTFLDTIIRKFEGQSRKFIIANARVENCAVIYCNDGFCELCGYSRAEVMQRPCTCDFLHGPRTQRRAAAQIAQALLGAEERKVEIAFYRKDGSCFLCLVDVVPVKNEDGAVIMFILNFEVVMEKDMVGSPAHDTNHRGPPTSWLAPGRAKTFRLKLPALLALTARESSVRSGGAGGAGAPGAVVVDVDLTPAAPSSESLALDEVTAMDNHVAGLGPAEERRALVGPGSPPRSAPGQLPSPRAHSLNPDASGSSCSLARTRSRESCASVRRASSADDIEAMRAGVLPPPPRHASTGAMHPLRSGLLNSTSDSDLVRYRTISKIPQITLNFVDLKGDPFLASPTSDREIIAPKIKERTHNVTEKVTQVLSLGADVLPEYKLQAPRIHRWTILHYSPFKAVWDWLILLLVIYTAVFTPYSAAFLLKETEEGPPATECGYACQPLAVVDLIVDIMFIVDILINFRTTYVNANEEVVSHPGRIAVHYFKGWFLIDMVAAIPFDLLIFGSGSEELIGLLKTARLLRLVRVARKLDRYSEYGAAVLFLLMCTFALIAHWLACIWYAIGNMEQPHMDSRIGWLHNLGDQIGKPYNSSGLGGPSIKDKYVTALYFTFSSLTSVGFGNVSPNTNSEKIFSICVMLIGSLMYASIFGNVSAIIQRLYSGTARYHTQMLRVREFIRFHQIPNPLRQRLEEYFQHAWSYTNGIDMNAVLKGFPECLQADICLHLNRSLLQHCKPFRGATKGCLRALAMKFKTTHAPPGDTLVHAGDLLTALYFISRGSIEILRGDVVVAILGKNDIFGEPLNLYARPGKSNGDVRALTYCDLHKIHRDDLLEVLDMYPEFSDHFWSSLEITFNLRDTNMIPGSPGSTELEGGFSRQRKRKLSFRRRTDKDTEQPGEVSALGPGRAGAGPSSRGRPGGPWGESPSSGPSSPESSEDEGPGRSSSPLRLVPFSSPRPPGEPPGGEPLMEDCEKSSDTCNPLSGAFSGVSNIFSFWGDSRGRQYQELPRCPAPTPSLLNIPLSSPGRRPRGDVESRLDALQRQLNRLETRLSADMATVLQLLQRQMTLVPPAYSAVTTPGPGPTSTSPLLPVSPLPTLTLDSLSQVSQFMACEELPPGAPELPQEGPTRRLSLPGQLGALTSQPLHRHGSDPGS

SMILES | hERG current change (%, negative = inhibition) at 1uM [%]
COc1cccc(-c2cn(-c3cccc(C(F)(F)F)c3)c(=S)[nH]2)c1 | 10.7
O=C(CNC(=O)c1ccccc1F)OCC(=O)N1CCCCC1 | 5.56
O=C(CCc1nnc(C2(c3ccc(Cl)cc3)CCC2)o1)NCCCn1cccn1 | 6.6
CCc1ccccc1NC(=O)C1CCN(c2cnccn2)CC1 | -1.11
COc1ccccc1Nc1nc(C)cc(C)n1 | 15.3
Nc1nc(SCc2c(Cl)cccc2Cl)n[nH]1 | 13.6
CC(C)CC(=O)N1CCN(S(=O)(=O)c2ccc(F)cc2)CC1 | 14.6
Cc1cccc(NS(=O)(=O)c2cc(C(=O)N3CCCC3)ccc2Cl)c1 | 8.12
O=C(CCS(=O)(=O)c1ccccc1)N1CCN(c2cccc(C(F)(F)F)c2)CC1 | -6.12
CCCc1cc(=O)[nH]c(SCC(=O)Nc2ccc([N+](=O)[O-])cc2C#N)n1 | 7.16
O=C(COc1ccc(Br)cc1)N(Cc1ccco1)C1CCS(=O)(=O)C1 (stereo not drawn) | -0.659
O=S(=O)(NC(=S)c1ccccc1)c1ccc(F)cc1 | 12.6
CCn1c2ccccc2c2cc(NC(=O)c3cc(OC)cc(OC)c3)ccc21 | 7.01
O=C(NC1CCCCC1)c1cc(-c2ccc(O)cc2)on1 | 5.61
Cc1ccnc(NC(=O)c2ccc(Cl)s2)c1 | 14
Cc1cc(C)n2nc(SCC(=O)N3CCc4ccccc43)nc2n1 | 2.57
COc1ccc(-n2c(=O)[nH]cc(C(=O)Nc3ccc4c(c3)OCCO4)c2=O)cc1 | 6.69
Cc1cc(N2CCOCC2)n2nc(C)c(-c3ccccc3)c2n1 | 13.2
COC/C=C/C1=CC2=CC(=O)C(C)(OC(=O)c3cccs3)C(=O)C2=CO1 (stereo not drawn) | 19.7
c1ccc(-c2nc(CSc3n[nH]c(-c4cccs4)n3)cs2)cc1 | 6.69
COc1cccc2c(=O)cc(C)n(CC(=O)Nc3ccc(Br)cc3)c12 | 11.7
C1CCC2CCCCC2C1 (stereo not drawn) | 15.3
COc1ccc(C2C(C(=O)NCC3CCCO3)c3cc(OC)c(OC)cc3C(=O)N2C)cc1OC (stereo not drawn) | 11.1

SMILES | hERG current change (%, negative = inhibition) at 1uM [%]
C=C(Cl)CSC(=S)N(CC)CC | 7.94
CC(C)c1ccc(C2CC(=O)c3cnc(NC(=O)c4ccco4)nc3C2)cc1 (stereo not drawn) | 9.95
N#CCCN(C(=O)COC(=O)CNS(=O)(=O)c1ccc2ccccc2c1)c1ccccc1 | 6.62
O=C(Nc1ccc(Cl)cc1F)c1ccc(-n2cncn2)cc1 | 5.38
CC1C/C(=N/NC(=O)c2cccc(F)c2)c2ccc(O)cc2C1 (stereo not drawn) | 2.74
C/C(=N/NC(=O)CNC(=O)C1COc2ccccc2O1)c1ccc([N+](=O)[O-])cc1 (stereo not drawn) | -42.3
CC(NC(=O)c1cccs1)c1ccc(Br)cc1 (stereo not drawn) | 14.3
O=C(Oc1ccc(/C=N/NC(=O)c2ccccc2F)cc1)c1ccccc1 | 9.04
COc1cc(C(=S)N2CCCC2)cc(Cl)c1O | 8.87
O=C(CN1C(=O)NC2(CCCc3ccccc32)C1=O)NC1CCCCC1 (stereo not drawn) | 1.03
CC1CCCN(CCCNC(=O)c2ccc3c(c2)N(Cc2ccc(F)cc2)C(=O)c2ccccc2S3=O)C1 (stereo not drawn) | -1.27
CCCCN(C(=O)NC(=O)Nc1nc2ccc(OC)cc2s1)S(C)(=O)=O | 15.2
CN(c1ccccc1)S(=O)(=O)c1cccc(NC(=O)c2cc(=O)c3ccccc3o2)c1 | 14.8
CCOc1ccc(Cl)cc1S(=O)(=O)N1CCC(C(=O)NCc2ccccn2)CC1 | -4.95
N#Cc1nc(-c2ccccc2)oc1NCCCn1ccnc1 | 6.33
Cc1ccc2nc(-c3ccc(Br)o3)oc(=O)c2c1 | -7.37
Cc1ccc(-c2csc3nc(C)n(N)c(=O)c23)cc1 | 2.29
Cc1cc(C)n(C(=O)c2cc3c(s2)CCCC3)n1 | 12
Nc1nnc(SCC(=O)Nc2cc(S(=O)(=O)N3CCOCC3)ccc2N2CCCC2)s1 | 0.703
COc1ccc(S(=O)(=O)N2CCC(C)CC2)cc1OC | 10.9
COc1ccc(C2=NN(C3=NN=C(N)Cc4ncnn43)C(O)(C(F)(F)F)C2)cc1 (stereo not drawn) | 11.1
COc1cc(OC)cc(C(=O)NNC(=S)NCc2ccco2)c1 | 1.72
CC1(c2nnc(Cc3ccccc3)o2)CC(c2ccncc2)=NO1 (stereo not drawn) | 7.52

SMILES | hERG current change (%, negative = inhibition) at 1uM [%]
Cc1ccc(Cl)cc1N1CCN(C(=O)c2ccc(NC3=NC4CS(=O)(=O)CC4S3)cc2)CC1 (stereo not drawn) | 16.5
O=C(c1ccc2c(c1)OCO2)N1CCC(Cc2ccccc2)CC1 | 8.92
CC12CN3CC(C)(CN(C1)C3c1ccc(Cl)cc1Cl)C2O (stereo not drawn) | 0.586
OC(c1ccc(Cl)cc1)C(O)c1nc2ccccc2[nH]1 (stereo not drawn) | 1.71
O=C(COC(=O)c1ccccc1O)NCCCc1ccccc1 | 14.3
Cc1cc(C)cc(N=c2c([N+](=O)[O-])nn(-c3cccc(Cl)c3)n2O)c1 | 4.71
Cc1ccc(N2C(=O)[C@@H]3C(C(=O)CCN4C(=O)c5ccccc5C4=O)=NN[C@@H]3C2=O)cc1 | 10.5
CCOc1ccc(N(CC)S(=O)(=O)c2c(C)[nH]c(=O)[nH]c2=O)cc1 | 14.9
CCn1nc(C)c(CNC(=O)CCc2nnc(Cc3c[nH]c4ccccc34)o2)c1C | 10.6
COc1ccccc1-n1c(C)nnc1SCC(=O)Nc1cc(C)cc(C)c1 | 7.49
COc1cc(C(=O)N/N=C/c2cn(Cc3ccccc3)c3ccccc23)ccc1O | -3.34
O=C(Nc1ccccc1C(F)(F)F)NC1CCCCC1 | 7.26
Cn1c(=O)c2ccccc2n(Cc2ccccc2F)c1=O | 9.49
COc1ccc(S(=O)(=O)Nc2cc(C(C)C)c(O)cc2C)cc1 | 8.9
CC1CCCCN1C(=O)CN1C(=O)NC2(CCCCC2C)C1=O (stereo not drawn) | 5.35
CC(=O)NC(=C(Cl)Cl)S(=O)(=O)c1ccccc1 | 18.9
CCNc1nc(NC(C)C)nc(N(C#N)C(C)C(=O)N(C)C)n1 (stereo not drawn) | 0.935
O=C(CSc1nnc(CNC(=O)c2ccccc2F)o1)NCc1ccco1 | 17.8
CNC(=O)c1ccc(NC(=O)/C=C/c2cccc(F)c2)cc1 | -0.619
CNC(=O)c1c(NC(=O)C2=COCCO2)sc2c1CCN(C(=O)OC)C2 | 7.39
O=C(NN1C(=O)C2C3CCC(O3)C2C1=O)c1ccc(Br)o1 (stereo not drawn) | 7.31
COc1ccc(NC(=O)CSc2nc3c(c(=O)n2-c2ccccc2OC)SCC3)cc1 | 6.89
O=C(CSc1nnc(-c2ccc(O)cc2)n1Cc1ccco1)c1cccs1 | -6.28

SMILES | hERG current change (%, negative = inhibition) at 1uM [%]
CN(C)CCCN(C(=O)c1ccc(Br)s1)c1nc2cc3c(cc2s1)OCCO3.Cl | 4.13
COC(=O)[C@H](CCSC)NC(=O)N1CCN(c2cccc(C(F)(F)F)c2)CC1 | 6.2
O=C(/C=C/c1ccc(Cl)cc1)NC(=S)Nc1ccc(CN2CCOCC2)cc1 | 11.6
CCCCN(S(=O)(=O)c1ccccc1)S(=O)(=O)c1ccccc1 | 13.9
Cc1cc(C)n(CC(=O)NNC(=O)c2cccc(C(F)(F)F)c2)n1 | 5.29
CC(=O)N(C)c1ccc(N=C2C(=O)Nc3ccccc32)cc1 | 9.53
COc1ccc(CC(=O)NCC2CCCN(Cc3cccc(C(F)(F)F)c3)C2)cc1 (stereo not drawn) | 5.75
CC(C)(C)c1nnc(N/N=C/c2cc(Br)ccc2O)n(N)c1=O | 5.69
Cc1ccc(S(=O)(=O)N(CC(O)CN2CCCCC2)c2cccc([N+](=O)[O-])c2)cc1 (stereo not drawn) | -73.1
O=C(N/N=C/c1ccc([N+](=O)[O-])s1)c1ccncc1 | 8.25
Cc1cccc(NC(=O)/C(=C\c2ccco2)NC(=O)c2cccs2)c1 | 7.02
CC12CCC(C(=O)NNC(=O)c3ccc(F)cc3)(OC1=O)C2(C)C (stereo not drawn) | 14
CN(CC(=O)Nc1ccc(F)c(F)c1F)C(=O)Cn1cnc2c1c(=O)n(C)c(=O)n2C | 6.32
CCOC(=O)c1sc(NC(=O)CSc2nnnn2-c2ccccc2)c(C(=O)OCC)c1C | 11.4
CCOC(=O)c1[nH]c(C(=O)O)c(OC(=O)CC)c1C | 14.5
CN1CCN(c2ccc(C(=O)c3ccc(F)cc3)cc2)CC1 | -5.8
Cc1ccc(NS(=O)(=O)c2ccc3oc(=O)ccc3c2)cc1Cl | 13.8
Nc1cc(Cl)nc(N/N=C/c2c(O)ccc3ccccc23)n1 | 13.8
CC1=C(C(=O)N2CCOCC2)C(c2cccs2)NC(=O)N1 (stereo not drawn) | 10.7
CCN(CC)S(=O)(=O)c1cccc(C(=O)OC2CCOC2=O)c1 (stereo not drawn) | 8.03
O=C(Nc1ccc(F)cc1F)c1ccc(-n2cccn2)nc1 | 1.37
